Data taken from the supplement of paper PMC4967469.
Lines with a small IC50 respond at low doses; a limit (>, <) means that the fit lies beyond the doses tested. AUC sums up the same curve from the lowest dose to the 256-fold higher top dose: 1 means no effect, lower means more sensitive. For some of these results: The top dose, if marked as inferred, was calculated from the reported fits. For some of these results: An entry number marks a drug with two screens in the source, which often give different values.

Legend:
Assay in all cases: Viability of human cancer cell lines after 72 h of drug (GDSC screen)
AZD6244 = compound: Cn1cnc2c(F)c(Nc3ccc(Br)cc3Cl)c(C(=O)NOCCO)cc21 [AZD6244]; conditions: top dose 4 µM; screen: GDSC drug entry 1498; top dose inferred
Experimental: (§1)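 Human cancer cell lines in 384-well plates, medium with 10% serum, drug for 72 h over a 256-fold dose range (nine 2-fold or five 4-fold steps up to the top dose). Adherent lines were fixed and stained with the nucleic acid dye Syto60, suspension lines read with resazurin; signal relative to control wells, capped at 0 and 100%. One two-parameter sigmoid per drug and line, fitted in a mixed model over all curves with the slope shared within a line.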

EX-527 = compound: NC(=O)C1CCCc2c1[nH]c1ccc(Cl)cc21 [EX-527]; conditions: top dose 20 µM
Experimental: as §1

YM201636 = compound: Nc1ccc(C(=O)Nc2cccc(-c3nc(N4CCOCC4)c4oc5ncccc5c4n3)c2)cn1 [YM201636]; conditions: top dose 5.12 µM; top dose inferred
Experimental: as §1

AS601245 = compound: N#CC(c1ccnc(NCCc2cccnc2)n1)c1nc2ccccc2s1 [AS601245]; conditions: top dose 8 µM; top dose inferred
Experimental: as §1

Row | Cell Line | AUC (AZD6244) | IC50 (AZD6244) [µM] | AUC (EX-527) | IC50 (EX-527) [µM] | AUC (YM201636) | IC50 (YM201636) [µM] | AUC (AS601245) | IC50 (AS601245) [µM]
1 | T-24 (bladder, adherent) | 0.72 | 1.02 | 0.989 | > 20 | 0.975 | > 5.12 | 0.942 | > 8
2 | T-T (oesophagus, adherent) | 0.883 | > 4 | 0.986 | > 20 | 0.893 | > 5.12 | 0.762 | 2.84
3 | TCCSUP (bladder, adherent) | 0.834 | 3.15 | 0.985 | > 20 | 0.95 | > 5.12 | 0.906 | > 8
4 | TE-11 (oesophagus, adherent) | 0.93 | > 4 | 0.989 | > 20 | 0.916 | > 5.12 | 0.396 | 0.266
5 | TGBC11TKB (stomach, adherent) | 0.926 | > 4 | 0.98 | > 20 | 0.869 | 3.79 | 0.914 | > 8
6 | TGBC24TKB (biliary tract, adherent) | 0.855 | 2.86 | 0.99 | > 20 | 0.897 | > 5.12 | 0.876 | 7.03
7 | TOV-21G (ovary, adherent) | 0.784 | 1.86 | 0.974 | > 20 | 0.96 | > 5.12 | 0.947 | > 8
8 | TOV-112D (ovary, adherent) | 0.894 | > 4 | 0.973 | > 20 | 0.839 | 3.54 | 0.747 | 2.58
9 | TT2609-C02 (thyroid, adherent) | 0.896 | > 4 | 0.984 | > 20 | 0.86 | 4.77 | 0.763 | 3.07
10 | TT (thyroid, adherent) | 0.967 | > 4 | 0.978 | > 20 | 0.96 | > 5.12 | 0.93 | > 8
11 | TYK-nu (ovary, adherent) | 0.743 | 1.31 | 0.966 | > 20 | 0.881 | > 5.12 | 0.662 | 1.46
12 | U031 (kidney, adherent) | 0.785 | 1.77 | 0.985 | > 20 | 0.884 | > 5.12 | 0.862 | 7.3
13 | U251 (glioma, adherent) | 0.799 | 1.81 | 0.987 | > 20 | 0.927 | > 5.12 | 0.91 | > 8
14 | U-118-MG (glioma, adherent) | 0.868 | > 4 | 0.984 | > 20 | 0.915 | > 5.12 | 0.956 | > 8
15 | UACC-62 (melanoma, adherent) | 0.359 | 0.102 | 0.984 | > 20 | 0.983 | > 5.12 | 0.987 | > 8
16 | UACC-893 (breast, adherent) | 0.933 | > 4 | 0.983 | > 20 | 0.888 | > 5.12 | 0.948 | > 8
17 | UM-UC-3 (bladder, adherent) | 0.9 | > 4 | 0.98 | > 20 | 0.779 | 1.96 | 0.872 | 6.84
18 | UMC-11 (lung carcinoid, adherent) | 0.985 | > 4 | 0.98 | > 20 | 0.88 | 4.33 | 0.965 | > 8
19 | VM-CUB-1 (bladder, adherent) | 0.923 | > 4 | 0.981 | > 20 | 0.989 | > 5.12 | 0.978 | > 8
20 | VMRC-MELG (melanoma, adherent) | 0.943 | > 4 | 0.974 | > 20 | 0.979 | > 5.12 | 0.888 | > 8
21 | VMRC-RCZ (kidney, adherent) | 0.901 | > 4 | 0.976 | > 20 | 0.93 | > 5.12 | 0.874 | > 8
22 | WM35 (melanoma, adherent) | 0.326 | 0.0813 | 0.977 | > 20 | 0.814 | 2.82 | 0.827 | 4.94
23 | WM278 (melanoma, adherent) | 0.548 | 0.344 | 0.975 | > 20 | 0.75 | 1.86 | 0.865 | > 8
24 | WM793B (melanoma, adherent) | 0.803 | 2.25 | 0.972 | > 20 | 0.905 | > 5.12 | 0.759 | 3.08
25 | WM1552C (melanoma, adherent) | 0.771 | 1.54 | 0.981 | > 20 | 0.986 | > 5.12 | 0.816 | 4.48
26 | WM-115 (melanoma, adherent) | 0.706 | 1.1 | 0.972 | > 20 | 0.615 | 0.713 | 0.907 | > 8
27 | YAPC (pancreas, adherent) | 0.886 | > 4 | 0.985 | > 20 | 0.968 | > 5.12 | 0.985 | > 8
28 | YKG-1 (glioma, adherent) | 0.902 | > 4 | 0.976 | > 20 | 0.965 | > 5.12 | 0.729 | 2.26
29 | huH-1 (liver, adherent) | 0.923 | > 4 | 0.978 | > 20 | 0.984 | > 5.12 | 0.98 | > 8
